# Measurements reported in PubChem BioAssay AID651820 (National Center for Advancing Translational Sciences (NCATS), 2012).
# Screen size: about 340,000 compounds; about 12,000 (3.5%) were called active. Inconclusive means that the source gave no clear call. Such entries were picked first, then a sample of the others. Calls follow the shape of the dose curve; as a rule, active = well fitted inhibition curve with a large enough effect; inconclusive = small, poorly fitted or top-dose-only effect, or another doubt; inactive = no such curve, though single readings can be large or run the other way. Potencies of inconclusive entries are left out as doubtful fits.
# Assay: qHTS Assay for Inhibitors of Hepatitis C Virus (HCV)
# Conditions: Huh7.5.1 HCVcc-Cre (HCVcc is cell-culture hepatitis C virus) infection, luciferase reporter, 44 h; activity change, negative = inhibition: at 41.8 µM (top of the series) unless noted
# Outline: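 Whole-lifecycle infectious HCVcc-Cre system; cells 1,000/well, compound then virus (~0.5 moi) added 4 h after plating, 44 h culture. Luciferase read 15 sec following 15 min substrate incubation, room temp.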
# % is scaled to controls: 0 for no effect and ±100 for the full control effect; potency is read from the fitted curve at half-maximal effect; tags tell the direction and shape of the fitted curve.
SMILES,Potency,"activity change, negative = inhibition"
CCOc1ccc(NC(=O)c2ccc3c(c2)N(Cc2ccc(F)cc2)C(=O)CS3=O)cc1 (stereo not drawn),inactive,–
Cc1ccc(C)c(NC(=O)CN(C)C(=O)c2oc3c(Cl)cccc3c2C)c1,"inconclusive [inhibitor, partial curve]",–
COc1ccc(/C=N/NC(=O)c2cccnc2)c2ccccc12,"inconclusive [inhibitor, single point]",–
Cc1ccc(C)c(N2CCN(C(=O)Cc3cn(C)c4ccccc34)CC2)c1,"inconclusive [inhibitor, single point]",–
COc1cccc(OC)c1C(=O)NC(=S)Nc1ccc2oc(-c3ccncc3)nc2c1,"inconclusive [inhibitor, full curve, poor fit]",–
CCCCC(=O)NC(=S)NNC(=O)CCc1ccccc1,–,inactive: -0.693%
COC(=O)CNC(=O)c1cc(-c2ccncc2)nc2c(C)c(Cl)ccc12,"inconclusive [inhibitor, single point]",–
CCOC(=O)C1=C2c3cc(OC)c(OC)cc3CC(C)(C)N2C(=O)C1=O,"inconclusive [inhibitor, partial curve]",–
CCC(C)c1ccc(NC(=S)NCCn2cc(Br)cn2)cc1 (stereo not drawn),–,inactive: -26.2%
Cc1cc2c(C)cc(=O)oc2c2c1NCCC2,"inconclusive [inhibitor, single point]",–
CCOc1ccccc1N1CCN(C(=S)Nc2ccc(S(N)(=O)=O)cc2)CC1,"inconclusive [inhibitor, single point]",–
Cc1onc(-c2ccccc2)c1C(=O)NNC(=S)NC(=O)c1ccc(Br)cc1,"inconclusive [inhibitor, partial curve]",–
Cc1cc(C)c2ccc(N)nc2c1O,active: 11.2 µM,–
CCc1cccc(N=c2c([N+](=O)[O-])nn(-c3ccc4c(c3)OCCO4)n2O)c1,active: 10 µM,–
COc1ccccc1/C=C(/CC(=O)NCc1ccccc1)c1nc2ccccc2s1,"inconclusive [inhibitor, single point]",–
O=C(COC(=O)C1CCN(c2ccc(C(F)(F)F)cn2)CC1)NCc1cccc(Cl)c1,"inconclusive [inhibitor, single point]",–
CCOc1cc(OCC)cc(C(=O)Nc2cccc(C(C)=O)c2)c1,"inconclusive [inhibitor, full curve]",–
O=C(Nc1ccccc1N1CCOCC1)c1ccc([N+](=O)[O-])s1,active: 11.2 µM,–
C/C(=N\NC(=O)c1ccc(CSc2nc(C)cc(C)n2)cc1)C1CCCCC1,"inconclusive [inhibitor, partial curve]",–
O=C1N/C(=N/N=C/c2ccccc2O)SC1Cc1ccc(F)cc1 (stereo not drawn),"inconclusive [inhibitor, partial curve]",–
CCCCCCSc1ccc([C@@H]2[C@H]3C(=O)N(C)C(=O)[C@H]3[C@]3(C(=O)OC)CCCCN23)cc1,"inconclusive [inhibitor, single point]",–
O=C(NCCN1CCCC1)c1ccc2c(=O)n(CCc3ccccc3)c(=O)[nH]c2c1,"inconclusive [inhibitor, single point]",–

SMILES,Potency,"activity change, negative = inhibition"
Cc1ccc(C2(C)NC(=O)N(CC(=O)N3CCN(C(=O)c4cccs4)CC3)C2=O)cc1 (stereo not drawn),–,inactive: 9.49%
CC(=O)c1ccc(OCCCC(=O)Nc2ccc(C)c(S(=O)(=O)N3CCCCC3)c2)cc1,"inconclusive [inhibitor, partial curve]",–
O=C1Nc2ccccc2/C1=C/c1nc2ccccc2c(=O)n1-c1ccc(O)cc1,"inconclusive [inhibitor, single point]",–
COc1ccc(S(=O)(=O)NCC2CCCN(Cc3cn(C)nc3C)C2)cc1 (stereo not drawn),–,inactive: 7.62%
CCN1C(=O)[C@@H]2[C@@H](c3ccc(SC4CCCCC4)c(OC)c3)N3CCCC[C@@]3(C(=O)OC)[C@@H]2C1=O,–,inactive: 18.7%
Cc1onc(-c2c(F)cccc2Cl)c1C(=O)OCC(=O)Nc1cccc(S(=O)(=O)N(C)C)c1,"inconclusive [inhibitor, partial curve, poor fit]",–
CC1=NN(Cc2cc(C(C)(C)C)c(O)c(C(C)(C)C)c2)C(=O)C1,–,inactive: -5.59%
CC1(C)CC(NC(=O)c2cc(COc3cccc(C(F)(F)F)c3)on2)CCO1 (stereo not drawn),"inconclusive [inhibitor, single point]",–
Cc1cccn2c(CN(C)C3CCOC3)c(C(=O)N3CCCCC3)nc12 (stereo not drawn),–,inactive: 21.3%
CCc1nnc(NC(=O)c2ccc3ncsc3c2)s1,–,inactive: 2.59%
CCCN(CCC)c1nc(NC2CCN(C(=O)OCC)CC2)nc(OC)n1,"inconclusive [inhibitor, single point]",–
O=C(N/N=C/c1cccc([N+](=O)[O-])c1)c1cc(-c2ccc3c4c(cccc24)CC3)n[nH]1,"inconclusive [inhibitor, single point]",–
Cc1cc(C(=O)NN)c2cc(Br)ccc2n1,–,inactive: 4.57%
Cc1nnc(NCCO)c2ccccc12,–,inactive: 21.6%
CC1CCCN(C2=NC(=O)/C(=C/c3cn(-c4ccccc4)nc3-c3cccc(S(=O)(=O)N(C)C)c3)S2)C1 (stereo not drawn),"inconclusive [inhibitor, partial curve, poor fit]",–
CC(=O)c1cccc(CN(C)CC2CCCN(CCc3ccccc3C)C2)c1 (stereo not drawn),"inconclusive [inhibitor, partial curve]",–
O=C(CN1CCN(S(=O)(=O)c2ccc3ccccc3c2)CC1)Nc1ccc2c(c1)CCC2,"inconclusive [inhibitor, single point]",–
CN1CC=C2C(C#N)=C(N)C(C#N)(C#N)[C@H](c3cccs3)[C@H]2C1,"inconclusive [inhibitor, single point]",–
CCOC(=O)c1sc2nc(N3CCOCC3)c3c(c2c1N)CCCC3,"inconclusive [inhibitor, partial curve]",–
Cc1cc(C)c(O)c(CN(C)Cc2cc(Cl)cc(Cl)c2O)c1,"inconclusive [inhibitor, single point]",–
CC(=O)c1sc(NC(=O)c2ccc(Cn3cc(Br)cn3)o2)nc1C,–,inactive: 8.08%
